Results are given in words; binding and its absence hold for the method and conditions named. For some assays here: Binding seen in cells or lysates may run through a third protein. Some entries that bind do so weakly or less than the wild type. For some assays here: Where a sequence is shown, tags or fusion partners need not be part of it.
T1: FLAG-POLE4 D53K (human) (UniProt Q9NR33)
T1 sequence: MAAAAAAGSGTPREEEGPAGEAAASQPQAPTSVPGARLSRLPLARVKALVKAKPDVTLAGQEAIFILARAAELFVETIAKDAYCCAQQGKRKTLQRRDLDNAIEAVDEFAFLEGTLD

T2: WT FLAG-POLE4 (human) (UniProt Q9NR33)
T2 sequence: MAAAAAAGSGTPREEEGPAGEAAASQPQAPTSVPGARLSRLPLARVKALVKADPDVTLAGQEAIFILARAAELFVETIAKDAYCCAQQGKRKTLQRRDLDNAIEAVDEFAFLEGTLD


Assays:
[1] = target: POLE1, catalytic subunit of human DNA Polymerase Epsilon, with N-terminal streptavidin tag (human) (UniProt Q07864); assay: co-purification; subunits co-expressed in Sf9 cells from one biGBac vector; lysate over HiTrap TALON, then StrepTrap XT (streptavidin tag on POLE1), then Superdex200 size exclusion; Coomassie-stained gel of the purified complex
[2] = target: POLE1, catalytic subunit of human DNA Polymerase Epsilon, with N-terminal streptavidin tag (human) (UniProt Q07864); assay: cross-linking; DSBU cross-linking mass spectrometry of the purified full Polε complex; trypsin digest, LC-MS/MS, MeroX, FDR 5%; both purified
FLAG-POLE4 D53K (human) = target: T1, FLAG-POLE4 D53K (human); assay: co-IP; FLAG immunoprecipitation (M2 anti-FLAG agarose, 2 h at 4 °C) from 2 mg whole-cell extract of transiently transfected 293T cells; lysis buffer 50 mM HEPES pH 7.5, 1% Triton X-100, 150 mM NaCl, 5 mM EGTA; endogenous partner detected by Western blot
WT FLAG-POLE4 (human) = target: T2, WT FLAG-POLE4 (human); assay: as above
WT FLAG-POLE3 (human) = WT FLAG-POLE3 (human) (UniProt Q9NRF9); assay: as above
WT FLAG-POLE1 (human) = WT FLAG-POLE1 (human) (UniProt Q07864); assay: as above

binding [1]	binding [2]	Molecule	also measured
binds	binds	POLE3 accessory subunit of human DNA Polymerase Epsilon (from UniProt Q9NRF9 1-147)	
		endogenous POLE1 (from UniProt Q07864 1-2286) (enzyme)	binding (FLAG-POLE4 D53K (human)): no binding; binding (WT FLAG-POLE4 (human)): binds; binding (WT FLAG-POLE3 (human)): binds
		endogenous POLE3 (from UniProt Q9NRF9 1-147)	binding (WT FLAG-POLE1 (human)): binds
binds	binds	POLE4 accessory subunit of human DNA Polymerase Epsilon (protein, UniProt Q9NR33 1-117) MAAAAAAGSGTPREEEGPAGEAAASQPQAPTSVPGARLSRLPLARVKALVKADPDVTLAGQEAIFILARAAELFVETIAKDAYCCAQQGKRKTLQRRDLDNAIEAVDEFAFLEGTLD	

From paper PMC12796321, “The genetic and biochemical basis of human leading strand synthesis”
